The text below walks through data of PubChem BioAssay AID602356 (Sanford-Burnham Center for Chemical Genomics, 2012).

The target in this assay is Neurotensin receptor type 1 (Homo sapiens) (UniProt P30989). The assay can be described thus: neurotensin receptor 1 activation – imaging, image-based, set 3, SAR follow-up (AID 602356). Particulars: NTR1 image-based agonist assay, cellular imaging.

A word on the EC50: it is the concentration giving half of the maximal effect. Low values mean a more potent agent, high ones a less potent agent.

Not every entry of the source has a single result; some have several. The other results are left out here. How the calls were made is not given here. The source may hold further records. Values given together are repeats (runs, samples, wells, individuals or studies). Records carry a tag for their origin. Letters count within one entry.

Sequence of UniProt P30989 (P30989 whole entry, looked up): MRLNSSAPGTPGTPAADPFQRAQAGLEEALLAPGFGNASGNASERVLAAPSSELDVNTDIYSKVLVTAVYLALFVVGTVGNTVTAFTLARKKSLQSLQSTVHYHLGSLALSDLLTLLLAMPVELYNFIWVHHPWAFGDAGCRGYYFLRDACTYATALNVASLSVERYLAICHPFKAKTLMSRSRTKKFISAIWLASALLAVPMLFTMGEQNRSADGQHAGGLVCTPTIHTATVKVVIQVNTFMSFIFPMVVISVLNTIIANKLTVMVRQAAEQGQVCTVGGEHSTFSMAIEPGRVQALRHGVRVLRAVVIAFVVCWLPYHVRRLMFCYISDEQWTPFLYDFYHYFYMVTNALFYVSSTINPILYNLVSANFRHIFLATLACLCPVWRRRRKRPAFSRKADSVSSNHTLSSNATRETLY

Consider `COc1cc2nc(-c3ccccc3)nc(N3CCN(c4ccccc4OC)CC3)c2cc1OC`, for which the half-maximal effective concentration (EC50) is 8.72 µM [sample A] and inactive [sample B].
